The structures appear in SMILES notation. Out of some 44,000 compounds screened, about 340 (0.77%) were called active. About 5% were inconclusive and are not listed. Calls come from the whole dose curve; as a rule, active = well fitted inhibition curve with a large enough effect; inconclusive = small, poorly fitted or top-dose-only effect; inactive = flat fitted curve, though single readings scatter. Some of the results follow.
Potency is the fitted concentration of half-maximal effect.

The nature of the test: Acumen qHTS Assay for Inhibitors of the mTORC1 Signaling Pathway in MEF (Tsc2-/-, p53-/-) Cells: Sytravon.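 For activity change, negative = inhibition: plate controls were DMSO for no effect and rapamycin for full effect.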 Note: nearly all actives have a fitted effect of over 50% in size. The conditions noted are these: phospho-rpS6 immunofluorescence/PI, 24 h; series mostly up to 38.3 µM; activity change, negative = inhibition: at the top concentration. Summed up:
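Plate MEFs (Tsc2-/-, p53-/-, empty vector) in DMEM/10% FBS; after 24 h add compound, incubate 24 h at 37 degree Celsius; fix in PFA/TX-100, block, stain phospho-rpS6 and 10 uM PI; scan at 488 nm; report % positive cells.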
For `CC1CCN(S(=O)(=O)c2cc(C(=O)Nc3ccc(Br)cc3F)n(C)c2)CC1`, the “activity change, negative = inhibition” value is inactive: -5.63%.
Still for that read-out and setting: the same measure for `O=C(Cn1ncc2c(Cl)cccc21)NCc1cccc(Br)c1`: inactive: -2.71%; for `O=C(NC1CCCCC1)c1ccc(CSc2nc3cccnc3n2Cc2ccccc2F)cc1`: inactive: 0.686%.
Consider `Cc1ccc(Cn2c(CCCNC(=O)C3CCCCC3)nc3ccccc32)cc1`, for which the “activity change, negative = inhibition” value is inactive: -6.95%.
Same read-out and setting: the same measure for `CC(C)CCNC(=O)c1ccc2c(c1)N(Cc1ccccc1F)C(=O)c1ccccc1S2=O` (stereo not drawn): inactive: -14.5%; for `COc1ccccc1OCC(=O)NCC1(N(C)C)CCCCC1`: inactive: -2.13%; for `Cc1ccc(N2CC(NC(=O)C(=O)c3c[nH]c4ccccc34)CC2=O)cc1` (stereo not drawn): inactive: -1.27%.
For the compound `Oc1ccc(NCc2ccc(OCc3ccccc3Cl)cc2)cc1`, the Potency is active: 16.5 µM.
For `O=C(CSc1nc(=O)n(Cc2cccnc2)c2c1CCC2)Nc1ccc(F)cc1F`, the “activity change, negative = inhibition” value was inactive: -1.67%.
The same measure, in the same setting: next, `Cc1ccc(Cc2nc3ccccc3nc2SCC(=O)N2CCCCC2C)cc1` (stereo not drawn): inactive: -13.5%; `N#C/C(=C\c1c(Oc2ccc(Br)cc2)nc2ccccn2c1=O)c1nc2ccccc2s1`: inactive: -17%.
`COC(=O)c1cccc(NC(=O)Nc2cc(C(=O)NCc3cccc(F)c3)ccc2N2CCCC2)c1`: the “activity change, negative = inhibition” value is inactive: 19.9%.
On the same count and under the same terms, the same measure for `COc1ccc(N2CCN(C(=O)CS(=O)(=O)c3cccc4nsnc34)CC2)cc1`: inactive: -17%; for `CC(=O)N1CCc2cc(Br)cc(S(=O)(=O)N3CCN(c4cccc(C)c4)C(C)C3)c21` (stereo not drawn): inactive: 2.88%; for `O=C(NCCc1csc(-c2cccnc2)n1)c1ccc(F)c(F)c1`: inactive: -5.54%.
On the same count and under the same terms, next, `CCCCN1CCc2nc(N3CCN(C)CC3)ncc2C1`: inactive: 0%; `COc1ccccc1N1CCN(C(=O)c2cn(C)c3ccc(S(=O)(=O)N4CCOCC4)cc3c2=O)CC1`: inactive: -3.15%.
The same measure, in the same setting: next, `CN(C)c1ccc(CNC(=O)CCCn2ccc3cc(S(=O)(=O)N4CCCC4)ccc32)cc1`: inactive: -9.31%.
Take `COc1ccc(CCN2CCC(CNC(=O)c3cnn(-c4ccccc4)c3C3CCN(C(=O)OC(C)(C)C)CC3)CC2)cc1`: the “activity change, negative = inhibition” value is inactive: 6.66%.
On the same count and under the same terms, next, `Cc1nn(C(C)C(=O)NC2CCC(C)CC2)c(=O)c2cc3sccc3n12` (stereo not drawn): inactive: -3.11%; `COc1cccc(N2CCN(S(=O)(=O)c3ccc4c(c3)CCCN4C(C)=O)CC2)c1`: inactive: -2.92%; `CCOC(=O)c1c(NC(=O)c2cc(=O)c3ccc(C)cc3o2)sc(C)c1C`: inactive: -13.7%.
Turning to `COc1ccc(Cl)cc1NC(=O)c1cc(C)nn1-c1ccccc1`, the “activity change, negative = inhibition” value was inactive: -1.99%.
The same measure, in the same setting: the same measure for `COc1ccc(OC)c(S(=O)(=O)N2CC=C(c3c(C)n(CC(=O)N4CCCC4)c4ccccc34)CC2)c1`: inactive: -8.01%; for `O=S(=O)(c1ccc(Cl)cc1)c1nnn2c1nc(N1CCCCC1)c1sccc12`: inactive: 0.0604%; for `Fc1ccccc1-n1ncc2c1ncn1nc(Cc3ccccc3)nc21`: inactive: 2.25%.
On the same count and under the same terms, next, `Cc1ccccc1NC(=O)CN(c1ccc(Cl)cc1Cl)S(=O)(=O)c1ccccc1`: inactive: -1.54%.
Same read-out and setting: next, `COc1ccc(-c2nc3sc(CCNC(=O)c4ccccc4C)c(C)n3n2)cc1`: inactive: 1.25%; `Cc1cn(C)c(CC(=O)N2CCN(c3ccccc3F)CC2)c1C(=O)O`: inactive: -8.32%; `CC(CNC(=O)CCS(=O)(=O)c1ccc2c(c1)oc(=O)n2C)c1ccccc1` (stereo not drawn): inactive: 4.26%.
Consider `Cc1ccc2c(c1)-c1c(c(C(=O)N3CCN(c4cc(Cl)ccc4C)CC3)nn1C)CS2`, for which the “activity change, negative = inhibition” value was inactive: 0%.
On the same count and under the same terms, the same measure for `Cc1cccc(NC(=O)N2CCC(CN3CCOCC3)CC2)c1C`: inactive: -10%.
In the case of `O=S(=O)(NCc1ccccc1Cl)c1ccc(N2CCCCS2(=O)=O)cc1`, the “activity change, negative = inhibition” value is inactive: -2.18%.
Same read-out and setting: next, `Cc1cccn2c(=O)c3cc(C(=O)N(Cc4ccccc4)C(C)C)sc3nc12`: inactive: -10.2%.
The same measure, in the same setting: next, `CCCCN(C)CCNC(=O)c1ccc2c(c1)NC(=O)CN2`: inactive: 12.7%; `Cc1c(C(=O)NCCc2ccc(S(N)(=O)=O)cc2)sc2nc3n(c(=O)c12)CCCC3`: inactive: 8.29%; `COc1ccc(-c2cc(C(F)(F)F)n3nc(C(=O)NCC45CC6CC(CC(C6)C4)C5)cc3n2)cc1OC`: inactive: -1%.
Same read-out and setting: the same measure for `Cc1cccc(Cn2c(C)c(CNC3CCCCC3)c(C(=O)O)c2C)c1`: inactive: -4.84%; for `Cc1cc(Cl)ccc1NC(=O)C1CCN(c2nnc(-n3c(C)ccc3C)s2)CC1`: inactive: -4.9%.
In the case of `CCOC(=O)c1ccccc1NC(=O)N1CCOc2ccc(Cl)cc21`, the “activity change, negative = inhibition” value is inactive: -12.2%.
The same measure, in the same setting: next, `CC1CCN(S(=O)(=O)c2ccc3c(c2)N(CC(=O)O)C(=O)CO3)CC1`: inactive: 1.16%; `CCc1ccccc1NC(=O)CSc1nc2c(oc3ccccc32)c(=O)n1-c1ccccc1F`: inactive: -1.79%.
The same measure, in the same setting: the same measure for `Cc1ccc(NC(=O)C(=O)NCC(c2cccnc2)N2CCN(Cc3ccccc3)CC2)cc1` (stereo not drawn): inactive: -0.505%.
The same measure, in the same setting: the same measure for `Cc1ccc2ccc3cc(C(=O)N4CCN(c5ccccc5)CC4)nc3c2[nH]1`: inactive: -5.49%.
With `CC(=O)Nc1ccc(-c2nnc(SCC(=O)c3ccc([N+](=O)[O-])cc3)o2)cc1`, the “activity change, negative = inhibition” value is inactive: -17.9%.
Same read-out and setting: the same measure for `Cc1cc(C)c(NC(=O)CSc2nc(-c3ccc(F)cc3)nc3c2Cc2c(CO)cnc(C)c2O3)c(C)c1`: inactive: 2.37%.
The same measure, in the same setting: the same measure for `COc1ccc(S(=O)(=O)N(CC(=O)Nc2cccc(C)c2)c2ccc(C)cc2)cc1OC`: inactive: 1.27%; for `CCCCSCCCNC(=O)C1CCN(Cc2nc(-c3cccc(Br)c3)oc2C)CC1`: inactive: -16.3%.
